The record followed here is the RNAGym collection of RNA variant scans (doi:10.7554/elife.90254).

B1: OR4K15 (parent)
chain: GUUAACGGUCAUAGGCCAUGGAAACUAGGAGCACCAUUUCGCUGCCAGUGAAGAAAUGAACAAAGAAAAUCUGGGCCAGGCAGGCAUCAAAAGAAAUAGUCUUGCGCUCAACCAGAAAGUCUGUAAUCAUUUUAAGGGUA

The source gives no read counts; variants with many changes may rest on few reads.

The variants in this series derive from B1. Nature of the series: self-cleavage, relative activity (ratio to wild type); higher = more cleavage; in vitro, sequencing; the parent is a self-cleaving ribozyme.
Turning to GUCAACGGUCGUAGGCCAUGGAAACUAGGAGCACCAUUUCGCUGCCAGUGAAGAAGUGAACAAAGAAAAUCUGGGCCAGGCAGGCAUCAAAAGAAAUAGUCUUGCGCUCAACCAGAAAGUCUGUAAUCAUUUUAAGGGUA, the self-cleavage came to 0.84. Consider GUCAACGGUCAUAGGCCGUGGAAACUAGGAGCACCAUUUCGCUGCCAGUGAAGAAAUGAACAAAGAAAAUCUGGGCCAGGCAGGCAUCAAAAGAAAUAGUCUUGCGCUCAACCAGAAAGUCUGUAAUCAUUCUAAGGGUA, for which the self-cleavage was 1.75. Under GUAAACGGUCAUAGGCCAUGGAAACUUGGGGCACCAUUUCGCUGCCAGCGAAGAAAUGGACAAAGAAAAUCUGGGCCAGGCAGGCAUCAAAAGAAAUAGUCUUGCGCUCAACCAGAAAGUCUGUAAUCAUUUUAAGGGUA stands 1.17. Next, GUAAACGGUCAUAGGCCAUGGAAACUAGGAGCACCAUUUCGCUGCCGGCGAAGAAAUGAACAAAGAAAAUCUGGGCCAGGCAGGCAUCAAAAGAAAUAGUCUUGCGCUCAACCUGAAAGUCUGUAAUCAUUUUAAGGGUA: 0.04; GUAAACGGUCAUAGGCCAUGGAAACUAGGAGCACCAUUUCGCUGCCAGUGAAGAAAUGAACAAAGAAAAUCUGGGCCAGGCAGGCAUCAAAAGAAAUAGUCUUGCGCUCAACCAGAGAGUCAGUAAUCAUUUUAAGGGUA: 1.36; GUCAACGGUCAUAGGCCAUGGGAACUAGGGGCACCAUUUCGCUGCCAGUGAAGAAAUGAACAAAGAAAAUCUGGGCCAGGCAGGCAUCAAAAGAAAUAGUCUCGCGCUCAACCAGAAAGUCUGUAAUCAUUUUAAGGGUA: 0.38. Next, GUCAGCAGUCAUAGGCCAUGGAAACUAGUAGCACCAUUUCGCUGCCAGUGAAGAAAUGAACAAAGAAGAUCUGGGCCAGGCAGGCAUCAAAAGAAAUAGUCUUGCGCUCAACCAGAAAGUCUGUAAUCAUUUUAAGGGUA: 1.17; GUAAACGGUCAUAGGCCAUGGAAACUAGGAGCACCAUUUCGCUGCCAGUGAAGAAAUGGGCAAAGAAAAUCUGGGCCAGGCAGGCAUCAAAAGAAAUAGUCUUGCGCUCAACCAGAAAGUCUGUAAUCAUUUUAAGGGUA: 1.3; GUCAACGGUCGUAGGCCAUGGAAACUAGGAGCACCAUUUCGCUGCCAGUGAAAAAAUGAACAAAGAAAAUCUGGGCCAGGCAGGCAUCAAAAGAAAUAGUCUUGCGCUCAACCAGAAAGUCUGUAAUCAUUUUAAGGGUA: 0.94. In the case of GUCAACGGUCAUAGGCCGUGGAAACUAGGAGCACCAUUUCGCUGCCAGUGAAGAAAUGAUCAAAGAAAAUCUGGGCCAGGCAGGCAUCAAAAGAAAUAGUCUUGCGCUCAACCAGAAAGUCUGUAAUCAUUUUAAGGGUA, the self-cleavage was found to be 0.58.

On to GUCAACGGUCCUAGGCCAUGGAAACUAGGAGCACCAUUUCGCUGCCAGUGAAGAAAUGAACAAAGAAAAUCUGGGCCAGGCAGGCAUCAAAAGAAAUAGUCUUGCGCUCAACCAGAAAGUCUGUAAUCAUCUUAAGGGUA, for which the self-cleavage was determined as 0.81. Take GUAAACGGUCAUAGACCAUGGAAACUAGGGGCACCAUUUCGCUGCCAGUGAAGAAAUGAACAAAGAAAAUCUGGGCUAGGCAGGCGUCAAAAGAGAUAGUCUUGCGCUCAACCAGAAGGUCUGUAAUCAUUUUAAGGGUA: the self-cleavage is 1.49. Consider GUAAACGGUCAUAGGCCAUGGAAACUAGGAGCACCAUUUCGCUGCCAGUGAAGAAAUGAACAAAGAAAAUCUGGGCCAGGCAGGCAUCAAAAGAAAUAGUCUUGCGCUCAACCGGAAAGCCUGUAAUCAUUUUAAGGGUA, for which the self-cleavage was 0.27.

Turning to GUCAACGGUCGUAGGCAAUGGAAGCUAGGAGCACCAUUUCGCUGCCAGUGAAGAAAUGAACAAAGAAAAUCUGGGCCAGGCAGGCAUCAAAAGAAAUAGUCUUGCGCUCAACCAGAAAGUCUGUAAUCAUUUUAAGGGUA, the self-cleavage is 0.76.

In the case of GUAAACGGUCAUAGGCCAUGGAAACUAGGAGCACCAUUUCGCUGCCAGUGAAGAAACGAACAAAGAAAAUCUGGGCCAGGCAGGCAUCAAAAGAAAUAGUCUUGCGCUCAACCAGAAAGCCUGUAAUCAUUUUAAGGGUA, the self-cleavage came to 0.39.

Regarding GUAAACGGUCAUAGGCCAUGGAAACUAGGAGCACCAUUUCGCUGCCAGUGAAGAAAUGAACAAAGAAAAUCUGGGCCAGGCAGGCAUCAAGAGAAAUAGUCUUGCGCUCAACCAGGAAGUCUGUAAUCAUUUUAAGGGUA, the self-cleavage was 0.23. Under GUAAACGGUCAUAGGCCAUGGAGACUAGGAGCACCAUUUCGCUGCCAGUGAAGAGAUGAACAAAGAAAAUCUGGGCCAGGCAGGCAUCAAAAGAAAUAGUCUUGCGCUCAACCAGAUGGUCUGUAAUCAUUUUAAGGGUA stands 0.6; under GUAAACGGUCAUAGGCCAUGGACACUAGGAGCACCAUUUCGCUGCCAGUGAAGAAAUGAACAAAGAAAAUCUGGGCCAGGCAGGCAUCAAAAGUAAUAGUCUUGCGCUCAACCAGAAAGUCUGUAAUCAUUUUAAGGGUA, 1.27; under GUCAACGGUCGUAGGCCAUGGGAACUAGGAGCACCAUUUCGCUGCCAGUGAAGAAAUGAACAAAGAAAAUCUGGGCCAGGCAGGCAUCAAAAGGAAUAGUCUUGCGCUCAACCAGAAAGUCUGUAAUCAUUUUAAGGGUA, 1.15.

With GUCAACGGUCGUAGGCCAUGGAAACUAGGAGCACCAUUUCGCUGCCAGUGAAGAAAUGAACAAAGAAAAUCUGGGCCAGGCAGGCAUCAAAAGAAGUAGUCUUGCGCUCAACCAGAAAGUCUGUAAUCAUUUUAAGGGUA, the self-cleavage turned out to be 0.4.

On to GUAACCGGUCAUAGGCCAUGGAAACUAGGAGCACCAUUCCGCUGCCAGUGAAGAAGUGAACAAAGAAAAUCUGGGCCAGGCAGGCAUCAAAAGAAAUAGUCUUGCGCUCAACCAUAAAGUCUGUAAUCAUUUUAAGGGUA, for which the self-cleavage is 0.09.
